The text below walks through data of PubChem BioAssay AID1508624 (National Center for Advancing Translational Sciences (NCATS), 2021).

In all, about 48,000 compounds went through this assay and about 120 (0.25%) were called active. Roughly 4% stayed inconclusive and do not appear here. Calls come from the whole dose curve; as a rule, active = well fitted activation curve with a large enough effect; inconclusive = small, poorly fitted or top-dose-only effect, or another doubt; inactive = no such curve, though single readings can be large or run the other way. This is a selection; strong and weak results do not stand in their true shares. The source gives no active or inactive call for entries shown without one.
Potency is the fitted concentration of half-maximal effect.

A short description of the assay: Primary qHTS for Identification of Small Molecule Activators of Huntingtin-Antisense Promoter Activity. Note: nearly all actives have a fitted effect of over 55% in size. As to conditions: HEK293 HTT-AS promoter firefly luciferase reporter, 24 h; activity change, positive = activation: at 57.5 µM (top of the series), percent change from vehicle, -100% = no light. Summed up:
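Firefly luciferase signal from promoter-reporter HEK293 cells was scaled between vehicle (0%) and zero RLU (-100%). Compounds were tested at final concentrations of up to 57.5 uM over 24 h at 37 degrees C. PTC124 at 50 uM final served as control inhibitor.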
`COc1ccc(NC(=O)CN2C(=O)C(=O)c3ccccc32)c(OC)c1`: the activity change, positive = activation was -4.21%.
Consider `Cc1cccc(OCCSc2nc(-c3cccs3)nc3cc(=O)[nH]n23)c1`, for which the activity change, positive = activation was -4.17%.
Still for that read-out and setting: with `CCOc1ccccc1CN1CCc2nc(N3CCN(c4ccccc4F)CC3)ncc2C1` the figure was inactive: -51.4%; with `O=C1C(=O)N(C2CCN(C(=O)c3ccc(Cl)cc3)CC2)CCN1Cc1ccc(F)cc1`, 6.58%.
Still for that read-out and setting: the figure for `Cc1ccccc1NC(=O)c1c(C)oc2ccc(O)c(CN3CCCC3)c12` is -2.15%; for `COc1cccc(-c2cc(C(=O)Nc3cc(C)nn3-c3ccccc3)no2)c1` it is -4.42%; for `O=c1c2sc3ccccc3c2n(Cc2cccc(C(F)(F)F)c2)c(=O)n1Cc1ccccc1` it is inactive: -30.4%.
In the case of `CCc1ccc(S(=O)(=O)Nc2cccc(-c3ccc(N4CCC(C)CC4)nn3)c2)s1`, the activity change, positive = activation is 40.3%.
For `CCc1ccc(CNC(=O)c2cnc3sc(N4CCCCC4)nn3c2=O)cc1`, the activity change, positive = activation was -11.1%.
On to `CCOC(=O)c1ccc(N2CCN(c3ccccc3OC)CC2)c(NC(=O)Nc2ccc(CC)cc2)c1`, for which the activity change, positive = activation was found to be 1.58%.
`COc1ccc(N2CCN(CCCNC(=O)c3cnn(-c4ccc(C)cc4)c3-n3cccc3)CC2)cc1`: the activity change, positive = activation is -13.5%.
On to `O=C(Nc1ccccc1C(F)(F)F)c1noc2c1CCCC2`, for which the activity change, positive = activation is 83.3%.
On to `CCOC(=O)c1cc(C)n(CC2CCC(C(=O)Nc3ccc(OC)c(OC)c3)CC2)c1C` (stereo not given), for which the activity change, positive = activation is -13.8%.
On to `Cc1cc(C)cc(NS(=O)(=O)c2c(C)nc3scc(C)n3c2=O)c1`, for which the activity change, positive = activation is -8.41%.
Still for that read-out and setting: with `CCCOc1ccc(NC(=O)CC2C(=O)N(c3ccc(OC)cc3)C(=O)N2CCc2ccncc2)cc1` (stereo not given) the figure was -2.59%.
Consider `Cc1nn(-c2ccc(N3CCCCC3)nn2)c(C)c1CCC(=O)NCc1ccccc1`, for which the activity change, positive = activation was found to be 25%.
As for `Cc1ccc2c(=O)cc(C(=O)Nc3ccc(S(=O)(=O)N4CCCCCC4)cc3)oc2c1`, the “activity change, positive = activation” value was inactive: -9.13%.
On the same count and under the same terms, the figure for `CCc1cc(=O)oc2c(C)c3c(cc12)CN(CCc1ccccc1OC)CO3` is -6.26%; for `O=C(Nc1cccc(Cl)c1)c1cc(-c2ccc3c(c2)OCO3)on1` it is 101%; for `Cc1ccc(NC(=O)CSc2nc(-c3ccco3)nc3cc(=O)[nH]n23)cc1` it is -14.9%.
The same measure, in the same setting: with `Cc1ccccc1CCNC(=O)c1ccc2c(c1)nc1n2CCCCC1` the figure was inactive: -55.1%; with `CCOC(=O)c1cccc(NC(=O)c2cnc3sc(N4CCOCC4)nn3c2=O)c1`, -6.63%; with `Cc1cc(OCCCc2c(C(=O)O)n(Cc3cccnc3)c3c(-c4c(COc5ccc(N6CCN([S+](C)(=O)[O-])CC6)cc5)nn(C)c4C)cccc23)cc(C)c1Cl`, inactive: -29.1%.
Consider `CCOc1ccc(NC(=O)N2CCN3CCCCC3C2)cc1` (stereo not given), for which the activity change, positive = activation is 5.47%.
Same read-out and setting: with `COc1ccc(C2C(=O)N(C3CCC(C)CC3)CC(=O)N2C2CCCC2)cc1OC` (stereo not given) the figure was -8.2%; with `COc1ccc(C(CC(=O)Nc2cc(OC)c(OC)c(OC)c2)N2Cc3ccccc3C2=O)cc1` (stereo not given), -27.6%; with `O=C(Nc1cnn(Cc2ccc(Cl)cc2Cl)c1)c1noc2c1CCc1ccccc1-2`, -13.6%.
The same measure, in the same setting: with `O=C(NCCc1ccccc1)c1cnc2sc(N3CCCCC3)nn2c1=O` the figure was -3.8%.
Same read-out and setting: with `COc1ccc(CCNS(=O)(=O)c2ccc(N3CCCCS3(=O)=O)cc2)cc1` the figure was inactive: -28.6%.
On to `COc1ccc(C2=C(N3CCN(c4cccc(C)c4C)CC3)c3ccccc3C2=O)cc1`, for which the activity change, positive = activation was 6.91%.
Same read-out and setting: with `CCc1ccc(NC(=O)CN2C(=O)c3cccc4cccc2c34)cc1` the figure was 4.34%.
Turning to `COc1ccc(Br)cc1CNC(=O)c1cnc2sc(N3CCC(C)CC3)nn2c1=O`, the activity change, positive = activation worked out at 3.46%.
Still for that read-out and setting: with `COc1cc(Cl)c(NC(=O)c2cc3ccccn3n2)c(OC)c1` the figure was 63.8%.
On to `CCOc1ccc(-c2cn3c(n2)sc2cc(C(=O)NCCCN4CCCCC4)ccc23)cc1`, for which the “activity change, positive = activation” value was inactive: -18%.
On the same count and under the same terms, the figure for `CCOC(=O)c1cc(C)n(CC2CCC(C(=O)Nc3cccc(C(C)=O)c3)CC2)c1C` (stereo not given) is -0.893%; for `Cc1ccc(S(=O)(=O)Nc2ccc(-c3ccc(N4CCCCCC4)nn3)cc2)c(C)c1` it is 0.12%.
The same measure, in the same setting: the figure for `CCCCn1c(SCC(=O)c2ccccc2)nc2sc3c(c2c1=O)CCCC3` is 5.27%.
Still for that read-out and setting: with `COc1ccc(N(CC(=O)N2CCCCC2)S(=O)(=O)c2ccc(OC)c(OC)c2)cc1` the figure was -2.74%.
Regarding `CCCCN(CC)C(=O)c1ccc2c(c1)NC(=O)c1ccccc1S2`, the activity change, positive = activation was -23.4%.
Regarding `CC1Cc2cc(S(=O)(=O)CCC(=O)Nc3ccccc3F)ccc2N1C(=O)C1CC1` (stereo not given), the activity change, positive = activation is -29.2%.
On the same count and under the same terms, the figure for `O=C(Nc1cccc(Br)c1)N1CCN2CCCCC2C1` (stereo not given) is 7.64%; for `Cc1c(NC(=O)Nc2ccc(Cl)c(Cl)c2)sc2nc3n(c(=O)c12)CCC(C)CC3` (stereo not given) it is 0.177%.
Still for that read-out and setting: with `COc1ccc(C(CC(=O)Nc2cc(Cl)c(OC)cc2OC)N2Cc3ccccc3C2=O)cc1` (stereo not given) the figure was -26.4%.
On the same count and under the same terms, the figure for `CCCOc1ccc(Oc2nc(NC)nc(N3CCOCC3)n2)nn1` is inactive: -14.5%.
In the case of `COc1ccc(-c2nc(SCC(=O)NC(C)CCc3ccccc3)n[nH]2)cc1` (stereo not given), the “activity change, positive = activation” value is inactive: -52.9%.
Consider `CCN(c1ccccc1)S(=O)(=O)c1c(C)nc2scc(C)n2c1=O`, for which the activity change, positive = activation was -17.1%.
On the same count and under the same terms, the figure for `COc1cc(C2C(=O)N(C3CCCCC3)CC(=O)N2CCc2ccccc2)ccc1OC(C)C` (stereo not given) is -8.86%; for `COc1ccccc1CNc1nc2ccc(C)cc2n2nnnc12` it is -12.6%.
For `COc1cccc(NC(=O)CSc2nnc(-c3cccc(OC)c3)o2)c1`, the Potency is active: 14.1 µM.
On to `Cc1ccc(NC(=O)CSc2ncc(-c3ccccc3)[nH]2)cc1`, for which the “activity change, positive = activation” value was inactive: -0.974%.
On the same count and under the same terms, the figure for `CCN1CCN(c2cc(C)c3cc(NC(=O)/C=C/c4cccc(OC)c4OC)ccc3n2)CC1` is inactive: -9.92%; for `CCOC(=O)C1CCN(C(=O)c2ccc3c(c2)sc2nc(-c4ccc(OC)cc4)cn23)CC1` it is inactive: -11.3%.
The same measure, in the same setting: with `CCOc1ccccc1CNC(=O)c1cc2c(=O)n(Cc3ccco3)ccc2nc1C` the figure was -16.1%; with `CCCc1cc(=O)oc2c(C)c3c(cc12)CN(CCc1ccc(Cl)cc1)CO3`, -9.74%.
Same read-out and setting: the figure for `Cc1ccc2oc(-c3cc(NC(=O)CC(C)C)ccc3Cl)nc2c1` is -26.3%; for `Cc1ccc(NC(=O)CSc2nc3c(sc4ccccc43)c(=O)n2CCCC(=O)NC2CCCC2)cc1C` it is inactive: -2.3%.
On to `CCOc1cc(CNC(=O)Cn2ncn3c(cc4cc(F)ccc43)c2=O)cc(OCC)c1OCC`, for which the activity change, positive = activation came out at 2.33%.
The same measure, in the same setting: the figure for `CCOc1ccc(CCNC(=O)c2cnc3sc(N4CCCCC4)nn3c2=O)cc1` is 3.9%.
Same read-out and setting: the figure for `O=C(Nc1cc(C(F)(F)F)ccc1Cl)c1cnn(-c2ccccc2)c1-n1cccc1` is -43.8%; for `Cc1ccc(C)c(NC(=O)CCc2c(C)nn(-c3ccc(N4CCCC4)nn3)c2C)c1` it is -11%; for `COc1ccc(C2C(=O)N(C3CCCCCC3)CC(=O)N2CCc2ccc(OC)c(OC)c2)cc1` (stereo not given) it is -9.28%.
On to `CCCOc1ccc(-c2nc(N3CCC(C)CC3)c3ccccc3n2)cc1`, for which the activity change, positive = activation is -7.89%.
Still for that read-out and setting: with `CC1=Nc2cc(C(=O)NCCc3ccccc3)ccc2Sc2c(C)ccc(C)c21` the figure was inactive: -39.9%; with `COc1ccccc1NC(=O)C1=C(C)Nc2nnnn2C1c1cc(Br)c(O)c(OC)c1` (stereo not given), -12.4%.
As for `Cc1ccc(NC(=O)Nc2sc3nc4n(c(=O)c3c2C)CCC(C)CC4)c(Cl)c1` (stereo not given), the activity change, positive = activation was -2.4%.
Turning to `CCOc1ccc(Nc2nnc(-n3nc(C)cc3C)c3ccccc23)cc1`, the activity change, positive = activation is -4.3%.
The same measure, in the same setting: the figure for `O=C(Nc1cccc(O)c1)c1noc2c1CCc1ccccc1-2` is 23.4%; for `CCOC(=O)CSc1nc2sc3c(c2c(=O)n1-c1ccccc1)CC(C(C)C)OC3` (stereo not given) it is -9.48%; for `NC(=O)c1ncn([C@@H]2O[C@H](CO)[C@@H](O)[C@@H]2O)c1O` it is inactive: -33.9%.
As to `O=C(NCCc1ccccc1)c1ccc(CSc2nc3ccncc3n2Cc2ccc(F)cc2)cc1`, the “activity change, positive = activation” value was inactive: -10.4%.
On to `Cc1ccc(C)c(N2CCN(C3=C(c4ccccc4)C(=O)c4ccccc43)CC2)c1`, for which the activity change, positive = activation came to 8.33%.
Same read-out and setting: the figure for `O=S(=O)(Nc1cccc(-c2ccc(N3CCCC3)nn2)c1)c1ccc(F)c(C(F)(F)F)c1` is -9.43%.
Still for that read-out and setting: with `CC(=O)c1ccc(NC(=O)CCc2c(C)nn(-c3ccc(N4CCCCC4)nn3)c2C)cc1` the figure was 22.3%; with `CCOC(=O)c1c(-c2ccccc2)oc2ccc(N(C(C)=O)S(=O)(=O)c3ccc(C)cc3)cc12`, -16.2%.
The same measure, in the same setting: the figure for `Cc1nn(-c2ccc(N3CCCCC3)nn2)c(C)c1CCC(=O)NCc1ccc(Cl)cc1` is -42.4%.
Take `CCOC(=O)c1cc(C)n(CC2CCC(C(=O)Nc3ccc(C(=O)OC)cc3)CC2)c1C` (stereo not given): the activity change, positive = activation is -26.9%.
Same read-out and setting: with `CCCc1cc(=O)[nH]c(Nc2cc(Cl)ccc2OC)n1` the figure was -20.4%; with `Cc1nc2ccn(Cc3ccco3)c(=O)c2cc1C(=O)NCc1ccc(F)cc1`, -17.3%.
Same read-out and setting: with `Cc1oc2ccc(O)c(CN3CCOCC3)c2c1C(=O)Nc1cccc(Cl)c1C` the figure was -5.4%; with `Cc1ccc(OCCCSc2nc(-c3ccc(C(C)(C)C)cc3)nc3cc(=O)[nH]n23)cc1C`, -9.48%.
The same measure, in the same setting: the figure for `Cc1nc2scc(C)n2c(=O)c1S(=O)(=O)Nc1cccc(C(F)(F)F)c1` is -38.7%; for `Cc1cc(-c2ccc(S(=O)(=O)Nc3ccc(Cl)cc3C)cc2)on1` it is -31.5%.
As for `Cc1ccc(C)c(CNC(=O)c2cc3ccccn3n2)c1`, the activity change, positive = activation turned out to be 11.2%.
For the molecule `CC1Cc2cc(S(=O)(=O)NCc3ccc(N(C)C)cc3)ccc2N1C(=O)C1CCC1` (stereo not given), the activity change, positive = activation was -30.5%.
As for `CC(=O)N[C@H]1[C@H]([C@H](O)[C@H](O)CO)OC(C(=O)O)=C[C@@H]1N=C(N)N`, the “activity change, positive = activation” value is inactive: 9.04%.
In the case of `Cc1ccc(CN2CCN(C3CCN(C(=O)c4ccc(C)cc4)CC3)C(=O)C2=O)cc1`, the activity change, positive = activation was -8.44%.
As to `CC1CCN(Cc2c(O)ccc3c(=O)c(-c4ccc(Cl)cc4)c(C(F)(F)F)oc23)CC1`, the activity change, positive = activation stood at 1.51%.
On the same count and under the same terms, with `Cc1ccc(CSc2nc(-c3ccc(C(C)(C)C)cc3)nc3cc(=O)[nH]n23)cc1` the figure was -13.3%; with `O=S(=O)(Nc1ccc(-c2ccc(N3CCCC3)nn2)cc1)c1ccc(OC(F)(F)F)cc1`, 0.832%.
Same read-out and setting: with `Cc1ccc(-c2nnc(Nc3cccc(O)c3)c3ccccc23)cc1S(=O)(=O)N1CCCCC1` the figure was -38.2%.
On the same count and under the same terms, with `COC(=O)c1ccc(NC(=O)CC2C(=O)N(c3cccc(OC)c3)C(=O)N2Cc2cccs2)cc1` (stereo not given) the figure was -4.47%; with `COc1ccc(S(=O)(=O)Nc2cccc(-c3ccc(N4CCCC4)nn3)c2)c(OC)c1`, 1.24%.
For `CCc1ccc(S(=O)(=O)Nc2cc3c(C(=O)OCc4ccccc4)c(C)oc3c3ccccc23)cc1`, the activity change, positive = activation was -4.84%.
On to `COC(=O)CN1C(=O)CSc2ccc(S(=O)(=O)Nc3cc(C)ccc3C)cc21`, for which the activity change, positive = activation is -13.7%.
Turning to `Cc1ccc(-c2nnc(Nc3cccc(Cl)c3)c3ccccc23)cc1S(=O)(=O)N1CCCCC1`, the activity change, positive = activation is -20.8%.
